Data: PubChem BioAssay AID540317 (National Center for Advancing Translational Sciences (NCATS), 2011)
About 2,200 (0.56%) of roughly 390,000 compounds were called active. This list was built around the results that the source calls inconclusive (neither active nor inactive); the mix of calls is not that of the screen. Calls come from the whole dose curve; as a rule, active = well fitted inhibition curve with a large enough effect; inconclusive = small, poorly fitted or top-dose-only effect; inactive = no such curve, though single readings can be large or run the other way. Potencies beside an inconclusive call are fits to weak or partial responses and may not hold up.

The compounds below were run against Chromobox protein homolog 1 (Homo sapiens) (UniProt P83916) (assay: HTS for Inhibitors of HP1-beta Chromodomain Interactions with Methylated Histone Tails). Details: AlphaScreen HP1-beta / biotin-H3K9me3 peptide binding; series mostly up to 114 µM; activity change, negative = inhibition: at the top concentration.
Chain of UniProt P83916 (P83916 whole entry, looked up): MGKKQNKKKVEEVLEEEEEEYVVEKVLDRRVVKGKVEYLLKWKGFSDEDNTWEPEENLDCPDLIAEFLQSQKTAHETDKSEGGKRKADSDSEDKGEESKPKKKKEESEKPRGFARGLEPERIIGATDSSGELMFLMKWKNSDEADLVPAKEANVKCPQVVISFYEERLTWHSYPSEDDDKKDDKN
Summary of the method: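 HP1-beta protein (50 nM final) preincubated 30 min at room temperature with biotinylated H3(1-18)K9me3 peptide (50 nM) in PBS pH 7.4, 0.01% Tween-20, then compound added for 30 min. AlphaScreen streptavidin donor/nickel chelate acceptor beads (10 ug/mL final), 30 min dark, luminescence read.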
Note: nearly all actives have a fitted effect of over 70% in size.
Potency is the fitted concentration of half-maximal effect; tags give direction and shape of the fitted curve.

SMILES	Potency	activity change, negative = inhibition
Cc1ccc(/C(C#N)=C\c2ccc(N3CCOCC3)o2)cc1	inconclusive: 44.7 µM [inhibitor, partial curve]	–
COc1ccc(NC(=O)N(C)C[C@H]2Oc3c(NC(=O)c4nc5ccccc5s4)cccc3C(=O)N([C@@H](C)CO)C[C@H]2C)cc1	inconclusive: 35.5 µM [inhibitor, single point]	–
N#Cc1c(N2CCCCC2)nc(N)c2c(N)nc(SCC(=O)O)cc12	active: 35.5 µM	–
O=S(=O)(Nc1ccccc1)c1cccc2nsnc12	inconclusive: 50.1 µM [inhibitor, partial curve]	–
O=C(O)CCN1C(=O)/C(=C\c2ccc(-c3nc4ccccc4s3)o2)SC1=S	active: 17.8 µM	–
CCN1CCN(CCCNC(=O)c2ccc3c(c2)NC(=O)c2ccccc2S3)CC1	–	inactive: 30.6%
COc1ccc(-c2n[nH]c(C)c2-c2ccc(Cl)cc2)c(O)c1OC	inconclusive: 31.6 µM [inhibitor, single point]	–
Cc1cc(Cl)cc(Cl)c1OCCCCN(C)C	inconclusive: 22.4 µM [inhibitor, partial curve, poor fit]	–
COc1cccc(C(=O)Nc2ccccc2-c2nnc(-c3ccc(C(C)(C)C)cc3)o2)c1	–	inactive: 54.9%
COc1ccc(NC(=O)CSc2nc(C)cc(C)c2C(=O)Nc2cccc(C)c2)cc1	–	inactive: 14.5%
Cc1ccc2c(c1)C(O)(CC(=O)c1cccc(-n3cccc3)c1)C(=O)N2 (configuration not stated)	inconclusive: 44.7 µM [inhibitor, partial curve]	–
c1cncc(-c2nnc(-c3cccnc3)nn2)c1	inconclusive: 7.08 µM [inhibitor, full curve]	–
Oc1c(N=NC(=S)Nc2ccccc2F)c2ccccc2n1Cc1ccccc1Cl	inconclusive: 2.51 µM [inhibitor, full curve, poor fit]	–
COc1ccc(Nc2nc(NCc3ccco3)nc(N/N=C/c3ccccc3F)n2)cc1	inconclusive: 25.1 µM [inhibitor, full curve]	–
CCc1cc(-c2n[nH]c(=S)n2CC(C)C)cs1	inconclusive: 39.8 µM [inhibitor, partial curve, poor fit]	–
COc1ccccc1NS(=O)(=O)c1cc(NC(=O)Nc2ccccc2)ccc1N1CCCCC1	inconclusive: 20 µM [inhibitor, full curve]	–
O=[N+]([O-])c1ccc(C2=NN(CCO)C(=Nc3ccc(OC(F)(F)F)cc3)SC2)cc1	inconclusive: 44.7 µM [inhibitor, partial curve]	–
Cc1cc(C)c(-c2csc(NC(=O)C3=NN(c4ccccc4)C(=O)CC3)n2)c(C)c1	–	inactive: 39%
CN1CCN(c2cc(N3CCN(C(=O)c4ccco4)CC3)c3c4c(onc24)-c2ccccc2C3=O)CC1	inconclusive: 15.8 µM [inhibitor, full curve]	–
C=C(C)CNC(=S)N/N=C(\C)c1ccc(-n2ccnc2)cc1	–	inactive: 20.3%
O=C(c1ccccc1)c1ccc(OCCCCN2CCCCC2)cc1	inconclusive: 25.1 µM [inhibitor, full curve]	–
O=C(O)CN1C(=O)/C(=C\c2cc(Br)ccc2OCc2ccc(Cl)cc2Cl)SC1=S	inconclusive: 44.7 µM [inhibitor, partial curve, poor fit]	–
Cc1cc(Br)ccc1OCCNCc1ccccc1	inconclusive: 50.1 µM [inhibitor, partial curve, poor fit]	–

SMILES	Potency	activity change, negative = inhibition
Cc1cc2cc(CCNS(=O)(=O)c3ccc(F)cc3)c(=O)[nH]c2cc1C	inconclusive: 89.1 µM [inhibitor, partial curve, poor fit]	–
CC(=O)c1cc(CC(=O)N2CCc3c([nH]c4ccccc34)C2c2ccccn2)cs1 (configuration not stated)	–	inactive: -18.3%
Cc1cccc(C(=O)Nc2sc3c(c2C(=O)O)CCCC3)c1	inconclusive: 89.1 µM [inhibitor, partial curve, poor fit]	–
Cn1cccc1CC(=O)N/N=C/c1ccc([N+](=O)[O-])cc1	inconclusive: 70.8 µM [inhibitor, partial curve]	–
COc1ccc(NC(C)=O)cc1S(=O)(=O)NCCc1ccccn1	–	inactive: 30.7%
COc1cc(/C=C(\C#N)C(=O)c2ccc(O)c(O)c2)cc(I)c1O	active: 8.91 µM	–
COc1ccc(OCc2nnc3n2N=C(c2ccc(OC)cc2)CS3)cc1	–	inactive: 29.1%
CC(NC(=O)C(Cc1ccccc1)=NO)c1ccccc1 (configuration not stated)	inconclusive: 89.1 µM [inhibitor, single point]	–
COc1ccc(NC(=S)N2CCc3ccccc3C2)cc1OC	inconclusive: 79.4 µM [inhibitor, single point]	–
NCCc1nnc(SCC(=O)Nc2cccc(Cl)c2)o1	–	inactive: 15.1%
O=[N+]([O-])c1cccc(C2NCC(c3ccccc3Cl)c3c2[nH]c2ccccc32)c1 (configuration not stated)	inconclusive: 50.1 µM [inhibitor, partial curve]	–
CN(C(=O)CSc1nc2ccccc2[nH]1)C1CCS(=O)(=O)C1 (configuration not stated)	–	inactive: 19.9%
O=C(CN1CCCC1)Nc1c2c(nc3ccccc13)N(Cc1ccccc1)CC2	inconclusive: 28.2 µM [inhibitor, single point]	–
Cc1ccccc1C(=O)N1CCc2c([nH]c3ccccc23)C1C(F)(F)F (configuration not stated)	inconclusive: 79.4 µM [inhibitor, partial curve]	–
CC1=C(C(=O)OCc2ccccc2)C(c2cccc(Br)c2)NC(=O)N1 (configuration not stated)	–	inactive: 25.6%
Cc1nc(NC(=O)CSc2ccccc2N)sc1C	–	inactive: 0.53%
COc1ccc(CNC(=O)c2sc(=S)n(-c3ccc(OC)cc3)c2N)cc1	inconclusive: 44.7 µM [inhibitor, partial curve]	–
O=C(O)CCNc1cc(N2CCN(C(=O)c3ccco3)CC2)c2noc3c2c1C(=O)c1ccccc1-3	inconclusive: 22.4 µM [inhibitor, single point]	–
C[C@H](CO)N1C[C@H](C)[C@@H](CN(C)C(=O)Nc2ccccc2)Oc2ccc(NC(=O)C3CC3)cc2C1=O	inconclusive: 89.1 µM [inhibitor, single point]	–
O=C1C=C(C2OC(CO)C(O)C2O)C(=O)N1 (configuration not stated)	inconclusive: 17.8 µM [inhibitor, full curve, poor fit]	–
COc1ccc(NC(=O)CN(C)CCOc2ccc(Cl)cc2)cc1OC	inconclusive: 20 µM [inhibitor, full curve]	–
COc1cc(C(=O)NCCc2ccc(F)cc2)c([N+](=O)[O-])cc1OC	inconclusive: 39.8 µM [inhibitor, single point]	–
O=C(c1cccc2ccccc12)N1CCC(N2CCN(c3ccccc3)CC2)CC1	inconclusive: 31.6 µM [inhibitor, partial curve]	–

SMILES	Potency	activity change, negative = inhibition
O=C1/C(=C/c2ccncc2)SC(=S)N1Nc1ccccc1	inconclusive: 39.8 µM [inhibitor, partial curve]	–
CCn1c(N2CCC(Cc3ccccc3)CC2)nc2c1c(=O)[nH]c(=O)n2C	inconclusive: 28.2 µM [inhibitor, full curve]	–
O=C(CN1CCCCC1)Nc1ccc(N2CCCCCC2)cc1	inconclusive: 39.8 µM [inhibitor, partial curve]	–
C/C(=N\NC(=S)NCc1ccccc1)c1cccs1	inconclusive: 22.4 µM [inhibitor, full curve]	–
O=C(NNc1ccccc1[N+](=O)[O-])NC1CCCCC1	–	inactive: 19.7%
COc1ccc2c(c1)CC/C(=C\Nc1ccc3c(c1)OCO3)C2=O	inconclusive: 89.1 µM [inhibitor, partial curve, poor fit]	–
Cc1ccc(-n2c(C)cc(C=C3C(=O)CC(C)(C)CC3=O)c2C)cc1	inconclusive: 20 µM [inhibitor, partial curve, poor fit]	–
O=C(c1cccc(Cl)c1)N1CCN(C2CCCCC2)CC1	inconclusive: 14.1 µM [inhibitor, full curve]	–
Oc1ccc(N2CCN(C(c3ccccn3)c3nnnn3C3CCCC3)CC2)cc1 (configuration not stated)	inconclusive: 100 µM [inhibitor, single point]	–
COc1ccc(S(=O)(=O)N(CC(=O)N/N=C/c2cccs2)c2cc(C)cc(C)c2)cc1OC	–	inactive: 1.79%
CC(C)CC(=O)N1CCN(Cc2ccc(Cl)cc2)CC1	inconclusive: 50.1 µM [inhibitor, partial curve, poor fit]	–
CCn1ccnc1CN(C)Cc1cn(C)nc1-c1ccccc1F	–	inactive: 20.5%
COc1ccc(CC(=S)N2CCOCC2)cc1	inconclusive: 10 µM [inhibitor, full curve]	–
CCn1c(SC(=O)NC2CCCCC2)nnc1-c1cccs1	active: 22.4 µM	–
COc1cc2ccccc2cc1C(=O)N1CCCC(C(F)(F)F)C1 (configuration not stated)	inconclusive: 3.98 µM [inhibitor, partial curve, poor fit]	–
O=C(CNS(=O)(=O)c1ccccc1)N/N=C\c1ccc(Cl)cc1	inconclusive: 39.8 µM [inhibitor, single point]	–
COc1ccc(NC(=S)NNc2ccc([N+](=O)[O-])cc2S(=O)(=O)Nc2ccc(C)cc2C)cc1	inconclusive: 35.5 µM [inhibitor, partial curve, poor fit]	–
N#CC1=C(N)C(C#N)(C#N)C(c2cccnc2)C2CN(C(=O)OCc3ccccc3)CC=C12 (configuration not stated)	–	inactive: 33.3%
Cc1ccc(Cn2c(SCC(=O)N/N=C/c3ccc(C)o3)nc3ccccc32)cc1	inconclusive: 28.2 µM [inhibitor, single point]	–
CC(=O)Nc1ccc(S(=O)(=O)N2CCN(Cc3cccc([N+](=O)[O-])c3)CC2)cc1	inconclusive: 31.6 µM [inhibitor, full curve]	–
CO/N=C(\c1nonc1N)N1CCN(c2ccc(Cl)cc2[N+](=O)[O-])CC1	inconclusive: 39.8 µM [inhibitor, partial curve]	–
